Measured values as given in patent US10703802B2 (priority 2013, dated 2020).
Residue numbers refer to the chain shown, from its start.

B1: CT164: human monoclonal antibody effective against the influenza A viruses of group 2 (protein)
light: EVVLTQSPGTLTLPPGDRATLSCRASHSVGSTYIAWFQQKSGQAPRRLIYGASNRATDIPDRFSGSGSGTDFTLTIRRLEPEDSAVYYCQQFSVSPWTFGQGTRVEIKRTVAAPSVFIFPPSDEQLKSGTASVVCLLNNFYPREAKVQWKVDNALQSGNSQESVTEQDSKDSTYSLSSTLTLSKADYEKHKVYACEVTHQGLSSPVTKSFNRGEC
heavy: QVQLVQSGVEVKKPGASVKVSCKTSGYPFSTYGVSWVRQAPGQGLEWVGWISGYTGITDYAQKSQGRVTLTTDASTATAFLELRSLRPDDTATYFCARDKVQGRVEAGSGGRHDYWGQGTLVIVSS[human IgG1 constant region omitted here]
B2: CT166: human monoclonal antibody effective against the influenza A viruses of group 2 (protein)
light: B1 light with T12A, D17E, V29I, F37Y, T57S
heavy: B1 heavy with V9A, P28S, S64F, S75T, A107V

Legend:
[1] = test system: HA1 subunit of A/Brisbane/10/07(H3N2); format: binding
[2] = test system: A/Brisbane/10/07; format: cell-based, influenza A virus
[3] = test system: trimeric HA of A/Brisbane/10/07 (H3N2); format: binding
[4] = test system: H3N2 A/Brisbane/10/07; format: cell-based
[5] = test system: H3N2 A/Wisconsin/67/05; format: cell-based

| Molecule | binding to HA antigen (ELISA) [1] | hemagglutination inhibition end point (lowest antibody concentration at which no hemagglutination reaction was observed) [2] | binding to HA antigen (ELISA) [3] | lowest concentration of the antibody at which no virus antigen was detected (MN test) [4] | lowest concentration of the antibody at which no virus antigen was detected (MN test) [5] |
| --- | --- | --- | --- | --- | --- |
| B1 | did not bind | >20 µg/mL | did easily bind | 0.625 µg/mL | 2.5 µg/mL |
| B2 | did not bind | >20 µg/mL | did easily bind | 1.25 µg/mL | 5 µg/mL |
